Results as given in PubChem BioAssay AID2147 (National Center for Advancing Translational Sciences (NCATS), 2009).
The campaign covered roughly 230,000 compounds. About 3,600 (1.6%) were called active. The inconclusive results got no clear call from the source; some entries with a clear call stand among them for comparison. Calls follow the shape of the dose curve; as a rule, active = well fitted inhibition curve with a large enough effect (not every such curve was filed as active); inconclusive = small, poorly fitted or top-dose-only effect, or another doubt; inactive = no such curve, though single readings can be large or run the other way. Potencies beside an inconclusive call are fits to weak or partial responses and may not hold up.
Also: nearly all actives have a fitted effect of over 50% in size.
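For activity change, negative = inhibition in this document: 0% = wells with enzyme and -100% = buffer wells without enzyme.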
Potency is read from the fitted curve at half-maximal effect; tags tell the direction and shape of the fitted curve.

These compounds were tested against Lysine-specific demethylase 4E (Homo sapiens) (UniProt B2RXH2) (assay: qHTS Assay for Inhibitors of Human Jumonji Domain Containing 2E (JMJD2E)). Details: JMJD2E catalytic domain, FDH-coupled NADH fluorescence (FDH is formaldehyde dehydrogenase); series mostly up to 57.1 µM; activity change, negative = inhibition: at the top concentration.
UniProt B2RXH2, sequence (B2RXH2 whole entry, looked up, the tested form may be a part): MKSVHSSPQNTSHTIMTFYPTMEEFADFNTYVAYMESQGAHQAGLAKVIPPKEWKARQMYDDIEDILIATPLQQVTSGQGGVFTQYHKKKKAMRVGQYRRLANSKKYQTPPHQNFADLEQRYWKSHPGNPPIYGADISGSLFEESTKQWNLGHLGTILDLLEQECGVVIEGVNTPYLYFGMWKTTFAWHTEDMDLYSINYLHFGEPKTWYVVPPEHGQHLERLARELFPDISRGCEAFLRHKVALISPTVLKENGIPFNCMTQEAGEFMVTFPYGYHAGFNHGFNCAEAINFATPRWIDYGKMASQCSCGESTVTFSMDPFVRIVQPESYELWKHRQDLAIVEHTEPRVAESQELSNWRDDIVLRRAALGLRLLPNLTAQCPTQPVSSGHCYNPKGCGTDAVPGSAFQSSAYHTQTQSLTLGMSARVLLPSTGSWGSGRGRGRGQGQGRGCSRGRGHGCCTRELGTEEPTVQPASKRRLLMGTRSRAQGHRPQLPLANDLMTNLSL
Excerpt: Assay Provider: Structural Genomics Consortium [SGC] Screening Center PI: Austin, C.P. Screening Center: NIH Chemical Genomics Center [NCGC] The fine interplay among methylation states of several lysine residues on the tails of histone proteins is a major determinant of the transcriptional state of the associated DNA coding regions and is commonly referred to as the histone code. Histone lysine demethylases catalyze the removal of methyl groups from methylated lysine sidechains on histones H3 and H4, thus antagonizing the reactions catalyzed by histone lysine methyltransferases. […] In search for novel inhibitors of JMJD2E demethylase, a member of the largest set of histone demethylases belonging to the Fe(II) and 2-oxoglutarate oxygenase (2OG) superfamily, we performed a quantitative high-throughput screen (Inglese 2006) by using an assay which utilizes a trimethylated peptide substrate corresponding to a fragment of histone H3 (sequence ARKme3STGGK) with detection of the formaldehyde co-product in real time by a formaldehyde dehydrogenase (FDH) coupled reaction. FDH catalyzes oxidation of formaldehyde to formic acid with the concomitant reduction of the non-fluorescent beta-nicotinamide adenine dinucleotide hydrate (NAD+) cofactor to the fluorescent NADH co-product. References: Inglese, J., Auld, D., Jadhav, A., Johnson, R., Simeonov, A., Yasgar, A., Zheng, W. and Austin, C. Proc Natl Acad Sci USA 2006, 103, 11473-11478. N. R. Rose, S. S. Ng, J. Mecinovic, B. M. Lienard, S. H. Bello, Z. Sun, M. A. McDonough, U. Oppermann and C. J. Schofield, J Med Chem, 2008, 51, 7053-7056. Sakurai, M., Rose, N., Schultz, L., Quinn, A., Jadhav, A., Ng, S., Oppermann, U., Schofield, C.J. and Simeonov, A. Mol BioSystems 2009, in press. S. Michael, D. Auld, C. Klumpp, A. Jadhav, W. Zheng, N. Thorne, C. Austin, J. Inglese and A. Simeonov, Assay Drug Dev Technol, 2008, 6, 637-657.
Reagents and Controls: Ferrous ammonium sulfate, (+)-sodium L-ascorbate, beta-nicotinamide adenine dinucleotide hydrate (NAD+), Tween-20, formaldehyde dehydrogenase from P. putida (FDH), and disodium 2-oxoglutarate were from Sigma (St. Louis, MO). Black solid-bottom 384-well or 1,536-well assay plates were from Greiner Bio-One (Monroe, NC). Enzyme was supplied by Prof. Udo Oppermann, SGC-Oxford. The catalytic domain of human JMJD2E (residues 1-337) was produced as an N-terminally His6-tagged protein in E. coli, and purified by Ni-affinity chromatography and size-exclusion chromatography, and stored in HEPES 50 mM/ NaCl 500 mM pH 7.5, as reported in Rose 2008. The trimethylated histone peptide substrate ARK(me3)STGGK was synthesized and HPLC-purified by the Tufts University Core Facility (Boston, MA). Substrate solution (Sakurai 2009) contained 50 uM ARK(me3)STGGK, 0.00025 U/uL FDH, 50 uM 2-oxoglutarate, 250 uM NAD+, 1 mM ascorbate, and 10 uM ferrous ammonium sulfate. Controls and plate map: Buffer (150 mM HEPES pH 7.5 containing 0.01% Tween-20) in columns 3 and 4 as negative control (no enzyme) and 100 nM JMJD2E final concentration in columns 1,2, and 5-48. Assay Steps: Enzyme and buffer solutions (3 uL) were dispensed into a 1,536-well Greiner black solid-bottom assay plate. The library compounds (23 nL) were transferred using a Kalypsys pintool equipped with 1,536-pin array. The plate was incubated at room temperature (15 min), and then a 1 uL aliquot of substrate solution was added to initiate the reaction. The plate was transferred to ViewLux imager where an initial reading using standard UV optics (Ex 340 nm, Em 450 nm) was obtained. The plate was then removed from the reader, incubated for 30 minutes at room temperature, and returned to the reader for a second fluorescence reading. A fully automated robotic screening system (Kalypsys Inc, San diego, CA) was used to perform the above steps as described previously (Michael 2008). […]
For `COc1ccc(C(=O)N2CCN(Cc3cn[nH]c3-c3ccc(OC)cc3F)CC2)cc1`, the “activity change, negative = inhibition” value was inactive: 0.763%. With `CN1CCc2c(sc(/N=C/c3cccs3)c2C(N)=O)C1` the Potency was inconclusive: 25.1 µM [inhibitor, partial curve]. For `Cc1cc(SCC(=O)N/N=C/c2ccco2)nc2ccccc12`, the “activity change, negative = inhibition” value was inactive: -10.4%. With `COc1cc(C(=O)NNC(=S)NC(=O)c2ccccc2C)cc(OC)c1OC` the Potency was inconclusive: 25.1 µM [inhibitor, single point]. In the case of `Cc1[nH]c2ccccc2c1C(c1ccncc1)N1CCN(c2ccccn2)CC1` (stereo unspecified), the Potency is reported as inconclusive: 39.8 µM [inhibitor, single point]. For `COC(=O)c1sccc1-c1ccc(/C=N/OC(=O)c2cccs2)o1`, the Potency was inconclusive: 31.6 µM [inhibitor, partial curve]. In the case of `O=[N+]([O-])c1ccccc1OCCCn1cnc2ccccc21`, the Potency is reported as inconclusive: 28.2 µM [inhibitor, single point]. In the case of `COc1ccc(OC)c(/C=C/C(=O)OCC(=O)Nc2ccc3c(c2)OCCO3)c1`, the Potency is reported as inconclusive: 17.8 µM [inhibitor, partial curve]. With `O=C(O)C(Cc1ccccc1)N1C(=O)/C(=C/c2cccc3ccccc23)SC1=S` (stereo unspecified) the “activity change, negative = inhibition” value was inactive: -2.49%. `Cc1ccc(-n2c(O)c(/C=N/n3cnnc3)c3ccccc3c2=O)cc1` was tested, and the Potency was inconclusive: 17.8 µM [inhibitor, partial curve]. In the case of `Cc1cc(C(=O)N/N=C/c2cc(Br)ccc2OC(=O)c2ccccc2)n[nH]1`, the “activity change, negative = inhibition” value is reported as inactive: -9.75%. With `Cc1nnc(N/N=C/c2cccc(OCc3ccc(Cl)c(Cl)c3)c2)n1N` the Potency was inconclusive: 1.58 µM [inhibitor, full curve]. For `CN(C)/C=C(\C=O)c1onc(-c2ccccc2Cl)c1C#N`, the Potency was inconclusive: 31.6 µM [inhibitor, single point]. `CCn1c(=O)c(C(=O)NNS(=O)(=O)c2ccc(Br)cc2)c(O)c2ccccc21` was tested, and the Potency was inconclusive: 35.5 µM [inhibitor, single point]. `c1csc(CNc2ncnc3ccc(-c4ccc5c(c4)OCO5)cc23)c1` was tested, and the Potency was inconclusive: 31.6 µM [inhibitor, partial curve]. With `O=c1cc(-c2ccccc2)oc2cc(O)cc(O)c12` the Potency was inconclusive: 31.6 µM [inhibitor, single point]. With `CCOC(=O)c1sc2nccc(N(C)C)c2c1N=CN(C)C` the Potency was inconclusive: 35.5 µM [inhibitor, partial curve]. For `CN1CC(c2ccccc2)C2(SC(=S)N(Cc3ccco3)C2=O)C12C(=O)Nc1ccccc12` (stereo unspecified), the “activity change, negative = inhibition” value was inactive: -3.97%. For `N#CC1=C(N)Oc2c(O)cc3ccccc3c2C1c1ccsc1` (stereo unspecified), the Potency was inconclusive: 31.6 µM [inhibitor, single point]. In the case of `Cc1sc2nc3ccc(NCc4ccco4)nn3c(=O)c2c1C`, the Potency is reported as inconclusive: 28.2 µM [inhibitor, partial curve]. `Nc1ncnc2c1ncn2[C@@H]1O[C@H](COP(=O)(O)OP(=O)(O)O)[C@@H](O)[C@H]1O` was tested, and the “activity change, negative = inhibition” value was inactive: -1.87%. For `CCn1c2ccccc2c2cc(C3C(C#N)=C(N)Oc4n[nH]c(COC)c43)ccc21` (stereo unspecified), the Potency was active: 10 µM. In the case of `N#Cc1c2n(c(=S)n(-c3ccccn3)c1=O)CCCCC2`, the “activity change, negative = inhibition” value is reported as inactive: -8.89%. In the case of `COC(=O)c1cc(OC)c(OC)cc1NC(=O)CSc1ccccc1`, the Potency is reported as inconclusive: 28.2 µM [inhibitor, single point]. In the case of `N#Cc1cc(Oc2cccc3cccnc23)c(-n2nnc3ccccc32)cc1C#N`, the Potency is reported as active: 31.6 µM. With `COc1ccc(Cc2nc3ccccc3n2C)cc1` the “activity change, negative = inhibition” value was inactive: 0.18%. `O=C1c2cccnc2C(=O)N1c1cccc(-c2nc3ccccc3o2)c1` was tested, and the Potency was inconclusive: 25.1 µM [inhibitor, single point]. With `Cc1nn(Cc2ccccc2Cl)c(C)c1NC(=O)CCCn1nc(C)c([N+](=O)[O-])c1C` the “activity change, negative = inhibition” value was inactive: -6.04%. With `Cc1ccc(/C=C2\OC(=O)c3ccccc32)cc1` the Potency was inconclusive: 25.1 µM [inhibitor, partial curve]. With `COc1ccc2cc(S(=O)(=O)N3CCN(C)CC3)ccc2c1` the Potency was inconclusive: 35.5 µM [inhibitor, single point]. `C[C@H]1C2=C3C(C[C@H]4C(=O)N(c5ccccc5)C(=O)[C@H]4[C@H]3[C@@]3(Cc4ccccc4)C(=NCCc4c[nH]c5ccccc45)OC(=O)N3C2=O)[C@H]2C(=O)N(c3ccccc3)C(=O)[C@H]21` (stereo partly specified) was tested, and the “activity change, negative = inhibition” value was inactive: -20.4%. With `CCCc1nnc(NC(=O)CCC(=O)N2CCN(CCn3c(C)ccc3C)CC2)s1` the Potency was inconclusive: 14.1 µM [inhibitor, single point]. In the case of `CC(C(=O)NC(C)(C)C)N1C(=O)c2cccc3cccc(c23)C1=O` (stereo unspecified), the Potency is reported as inconclusive: 28.2 µM [inhibitor, partial curve]. With `Cc1c(N=NC2=C(O)CC(C)(C)CC2=O)c(=O)n(-c2ccccc2)n1C` the Potency was inconclusive: 20 µM [inhibitor, single point]. In the case of `Cc1ccc(OCCCC(=O)N2CCOCC2)c(C)c1`, the Potency is reported as inconclusive: 0.631 µM [inhibitor, partial curve]. With `N=C1/C(=C/c2cccn2-c2ccc([N+](=O)[O-])cc2)C(=O)N=C2SC=CN12` the “activity change, negative = inhibition” value was inactive: 0.669%.
